Data as given in publication PMC10092763.
No constants are given. Whether binding was seen depends on the method and setting. For some assays here: In cells and extracts the contact can be indirect. Some entries that bind do so weakly or less than the wild type. For some assays here: Where a sequence is shown, tags or fusion partners need not be part of it. One block for each molecule: values may come before it.

The chains behind the UniProt entries cited, without tags or fusion partners.
UniProt Q02962: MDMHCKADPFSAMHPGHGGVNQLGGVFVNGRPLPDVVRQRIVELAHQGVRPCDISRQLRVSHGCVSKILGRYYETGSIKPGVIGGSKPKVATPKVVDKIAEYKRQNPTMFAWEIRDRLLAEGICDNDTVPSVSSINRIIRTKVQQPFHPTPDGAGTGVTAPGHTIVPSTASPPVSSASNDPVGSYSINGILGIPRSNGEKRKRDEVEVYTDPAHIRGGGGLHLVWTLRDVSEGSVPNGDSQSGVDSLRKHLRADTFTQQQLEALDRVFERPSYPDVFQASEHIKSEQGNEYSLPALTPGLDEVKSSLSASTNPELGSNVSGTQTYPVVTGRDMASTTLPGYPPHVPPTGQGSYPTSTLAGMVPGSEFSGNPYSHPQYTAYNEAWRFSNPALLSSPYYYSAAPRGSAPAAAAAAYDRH

Tests used:
FLAG-tagged AFF4 (human) [1] = target: T1, FLAG-tagged AFF4 (human) (UniProt Q9UHB7); experiment: pull-down; FLAG-AFF4 enriched from BxPC-3 cells and washed with 0.5% NP40, not treated with lambda phosphatase, then incubated with His tagged PAX2 purified from E. coli; both purified
T1 sequence: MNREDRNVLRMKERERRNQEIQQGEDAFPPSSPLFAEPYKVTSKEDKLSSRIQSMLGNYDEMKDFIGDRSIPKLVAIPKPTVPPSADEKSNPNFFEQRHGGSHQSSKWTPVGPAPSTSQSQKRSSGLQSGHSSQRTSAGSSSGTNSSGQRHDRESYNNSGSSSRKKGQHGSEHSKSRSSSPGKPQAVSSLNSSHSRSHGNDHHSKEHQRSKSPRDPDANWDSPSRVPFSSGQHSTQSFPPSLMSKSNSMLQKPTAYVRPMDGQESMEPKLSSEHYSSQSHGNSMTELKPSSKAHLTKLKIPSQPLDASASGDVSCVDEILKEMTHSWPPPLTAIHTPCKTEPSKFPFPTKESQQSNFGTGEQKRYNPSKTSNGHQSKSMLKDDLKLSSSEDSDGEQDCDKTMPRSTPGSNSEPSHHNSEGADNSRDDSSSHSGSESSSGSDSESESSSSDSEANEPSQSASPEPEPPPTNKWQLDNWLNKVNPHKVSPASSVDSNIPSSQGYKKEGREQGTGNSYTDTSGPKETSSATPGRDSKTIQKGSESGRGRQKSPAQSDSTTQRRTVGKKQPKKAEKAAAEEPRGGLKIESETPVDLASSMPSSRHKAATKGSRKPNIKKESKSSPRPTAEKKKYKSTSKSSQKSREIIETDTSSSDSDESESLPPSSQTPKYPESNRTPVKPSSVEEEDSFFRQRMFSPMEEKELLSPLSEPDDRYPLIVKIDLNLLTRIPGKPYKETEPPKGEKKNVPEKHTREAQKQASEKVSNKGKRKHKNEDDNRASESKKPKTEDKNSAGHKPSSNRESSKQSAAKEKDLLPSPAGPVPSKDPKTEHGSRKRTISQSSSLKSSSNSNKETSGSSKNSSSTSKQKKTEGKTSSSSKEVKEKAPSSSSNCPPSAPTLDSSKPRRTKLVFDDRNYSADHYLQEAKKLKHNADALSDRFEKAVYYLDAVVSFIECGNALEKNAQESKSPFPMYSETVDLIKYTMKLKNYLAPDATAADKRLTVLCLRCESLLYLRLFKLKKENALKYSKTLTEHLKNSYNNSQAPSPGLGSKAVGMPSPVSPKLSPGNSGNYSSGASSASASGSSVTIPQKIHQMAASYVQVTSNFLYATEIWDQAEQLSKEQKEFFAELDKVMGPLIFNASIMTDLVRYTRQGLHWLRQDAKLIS

FLAG-tagged AFF4 (human) [2] = target: T1, FLAG-tagged AFF4 (human); experiment: condition: only FLAG-AFF4 treated with λPPase (10 nM) for one hour before incubation; pull-down; FLAG-AFF4 enriched from BxPC-3 cells and washed with 0.5% NP40, treated with lambda phosphatase (10 nM) for one hour, then incubated with His tagged PAX2 purified from E. coli; both purified
FLAG-tagged AFF4 (human) [3] = target: T1, FLAG-tagged AFF4 (human); experiment: co-IP; FLAG-AFF4 transiently transfected into AsPC-1 or BxPC-3 cells; FLAG-M2 beads precipitate FLAG-AFF4
[4] = target: PAX2 (human (endogenous in AsPC-1, BxPC-3, PANC-1)) (UniProt Q02962); experiment: co-IP; reverse immunoprecipitation with an antibody against PAX2
FLAG-tagged PAX2 = FLAG-tagged PAX2 (UniProt Q02962); experiment: co-IP; HA-tagged AFF4 (WT or serine mutants) transfected with or without FLAG-tagged PAX2 into BxPC-3 cells; FLAG-M2 beads precipitate FLAG-PAX2

B1: AFF4 (found in the reverse immunoprecipitation with an antibody against PAX2) (protein, UniProt Q9UHB7-1 1-1163)
chain: MNREDRNVLRMKERERRNQEIQQGEDAFPPSSPLFAEPYKVTSKEDKLSSRIQSMLGNYDEMKDFIGDRSIPKLVAIPKPTVPPSADEKSNPNFFEQRHGGSHQSSKWTPVGPAPSTSQSQKRSSGLQSGHSSQRTSAGSSSGTNSSGQRHDRESYNNSGSSSRKKGQHGSEHSKSRSSSPGKPQAVSSLNSSHSRSHGNDHHSKEHQRSKSPRDPDANWDSPSRVPFSSGQHSTQSFPPSLMSKSNSMLQKPTAYVRPMDGQESMEPKLSSEHYSSQSHGNSMTELKPSSKAHLTKLKIPSQPLDASASGDVSCVDEILKEMTHSWPPPLTAIHTPCKTEPSKFPFPTKESQQSNFGTGEQKRYNPSKTSNGHQSKSMLKDDLKLSSSEDSDGEQDCDKTMPRSTPGSNSEPSHHNSEGADNSRDDSSSHSGSESSSGSDSESESSSSDSEANEPSQSASPEPEPPPTNKWQLDNWLNKVNPHKVSPASSVDSNIPSSQGYKKEGREQGTGNSYTDTSGPKETSSATPGRDSKTIQKGSESGRGRQKSPAQSDSTTQRRTVGKKQPKKAEKAAAEEPRGGLKIESETPVDLASSMPSSRHKAATKGSRKPNIKKESKSSPRPTAEKKKYKSTSKSSQKSREIIETDTSSSDSDESESLPPSSQTPKYPESNRTPVKPSSVEEEDSFFRQRMFSPMEEKELLSPLSEPDDRYPLIVKIDLNLLTRIPGKPYKETEPPKGEKKNVPEKHTREAQKQASEKVSNKGKRKHKNEDDNRASESKKPKTEDKNSAGHKPSSNRESSKQSAAKEKDLLPSPAGPVPSKDPKTEHGSRKRTISQSSSLKSSSNSNKETSGSSKNSSSTSKQKKTEGKTSSSSKEVKEKAPSSSSNCPPSAPTLDSSKPRRTKLVFDDRNYSADHYLQEAKKLKHNADALSDRFEKAVYYLDAVVSFIECGNALEKNAQESKSPFPMYSETVDLIKYTMKLKNYLAPDATAADKRLTVLCLRCESLLYLRLFKLKKENALKYSKTLTEHLKNSYNNSQAPSPGLGSKAVGMPSPVSPKLSPGNSGNYSSGASSASASGSSVTIPQKIHQMAASYVQVTSNFLYATEIWDQAEQLSKEQKEFFAELDKVMGPLIFNASIMTDLVRYTRQGLHWLRQDAKLIS
- binding [4]: binds

B2: HA-tagged AFF4 WT (protein, UniProt Q9UHB7-1 1-1163)
chain: MNREDRNVLRMKERERRNQEIQQGEDAFPPSSPLFAEPYKVTSKEDKLSSRIQSMLGNYDEMKDFIGDRSIPKLVAIPKPTVPPSADEKSNPNFFEQRHGGSHQSSKWTPVGPAPSTSQSQKRSSGLQSGHSSQRTSAGSSSGTNSSGQRHDRESYNNSGSSSRKKGQHGSEHSKSRSSSPGKPQAVSSLNSSHSRSHGNDHHSKEHQRSKSPRDPDANWDSPSRVPFSSGQHSTQSFPPSLMSKSNSMLQKPTAYVRPMDGQESMEPKLSSEHYSSQSHGNSMTELKPSSKAHLTKLKIPSQPLDASASGDVSCVDEILKEMTHSWPPPLTAIHTPCKTEPSKFPFPTKESQQSNFGTGEQKRYNPSKTSNGHQSKSMLKDDLKLSSSEDSDGEQDCDKTMPRSTPGSNSEPSHHNSEGADNSRDDSSSHSGSESSSGSDSESESSSSDSEANEPSQSASPEPEPPPTNKWQLDNWLNKVNPHKVSPASSVDSNIPSSQGYKKEGREQGTGNSYTDTSGPKETSSATPGRDSKTIQKGSESGRGRQKSPAQSDSTTQRRTVGKKQPKKAEKAAAEEPRGGLKIESETPVDLASSMPSSRHKAATKGSRKPNIKKESKSSPRPTAEKKKYKSTSKSSQKSREIIETDTSSSDSDESESLPPSSQTPKYPESNRTPVKPSSVEEEDSFFRQRMFSPMEEKELLSPLSEPDDRYPLIVKIDLNLLTRIPGKPYKETEPPKGEKKNVPEKHTREAQKQASEKVSNKGKRKHKNEDDNRASESKKPKTEDKNSAGHKPSSNRESSKQSAAKEKDLLPSPAGPVPSKDPKTEHGSRKRTISQSSSLKSSSNSNKETSGSSKNSSSTSKQKKTEGKTSSSSKEVKEKAPSSSSNCPPSAPTLDSSKPRRTKLVFDDRNYSADHYLQEAKKLKHNADALSDRFEKAVYYLDAVVSFIECGNALEKNAQESKSPFPMYSETVDLIKYTMKLKNYLAPDATAADKRLTVLCLRCESLLYLRLFKLKKENALKYSKTLTEHLKNSYNNSQAPSPGLGSKAVGMPSPVSPKLSPGNSGNYSSGASSASASGSSVTIPQKIHQMAASYVQVTSNFLYATEIWDQAEQLSKEQKEFFAELDKVMGPLIFNASIMTDLVRYTRQGLHWLRQDAKLIS
- binding (FLAG-tagged PAX2): binds

The remaining lines, values ahead:

- binding (FLAG-tagged AFF4 (human) [1]): binds
- binding (FLAG-tagged AFF4 (human) [2]): no binding
Molecule: His tagged PAX2 (from UniProt Q02962 1-417)

- binding (FLAG-tagged AFF4 (human) [3]): binds
Molecule: PAX2 (from UniProt Q02962 1-417)
